Publication PMC12678687
Results are given in words; binding and its absence hold for the method and conditions named. Binding seen in cells or lysates may run through a third protein. Some binding calls cover weakened binding; strength is not graded here. Tags and fused reporters may be left off the sequences shown.

Legend:
Assay in all cases: co-IP; PXL1-FLAG and BSL1/2/3-GFP co-expressed in Nicotiana benthamiana; total protein immunoprecipitated with anti-GFP beads; blots with anti-FLAG and anti-GFP
[1] = molecular target: T1, BSL2-GFP (Arabidopsis thaliana) (UniProt Q9SJF0)
T1 sequence: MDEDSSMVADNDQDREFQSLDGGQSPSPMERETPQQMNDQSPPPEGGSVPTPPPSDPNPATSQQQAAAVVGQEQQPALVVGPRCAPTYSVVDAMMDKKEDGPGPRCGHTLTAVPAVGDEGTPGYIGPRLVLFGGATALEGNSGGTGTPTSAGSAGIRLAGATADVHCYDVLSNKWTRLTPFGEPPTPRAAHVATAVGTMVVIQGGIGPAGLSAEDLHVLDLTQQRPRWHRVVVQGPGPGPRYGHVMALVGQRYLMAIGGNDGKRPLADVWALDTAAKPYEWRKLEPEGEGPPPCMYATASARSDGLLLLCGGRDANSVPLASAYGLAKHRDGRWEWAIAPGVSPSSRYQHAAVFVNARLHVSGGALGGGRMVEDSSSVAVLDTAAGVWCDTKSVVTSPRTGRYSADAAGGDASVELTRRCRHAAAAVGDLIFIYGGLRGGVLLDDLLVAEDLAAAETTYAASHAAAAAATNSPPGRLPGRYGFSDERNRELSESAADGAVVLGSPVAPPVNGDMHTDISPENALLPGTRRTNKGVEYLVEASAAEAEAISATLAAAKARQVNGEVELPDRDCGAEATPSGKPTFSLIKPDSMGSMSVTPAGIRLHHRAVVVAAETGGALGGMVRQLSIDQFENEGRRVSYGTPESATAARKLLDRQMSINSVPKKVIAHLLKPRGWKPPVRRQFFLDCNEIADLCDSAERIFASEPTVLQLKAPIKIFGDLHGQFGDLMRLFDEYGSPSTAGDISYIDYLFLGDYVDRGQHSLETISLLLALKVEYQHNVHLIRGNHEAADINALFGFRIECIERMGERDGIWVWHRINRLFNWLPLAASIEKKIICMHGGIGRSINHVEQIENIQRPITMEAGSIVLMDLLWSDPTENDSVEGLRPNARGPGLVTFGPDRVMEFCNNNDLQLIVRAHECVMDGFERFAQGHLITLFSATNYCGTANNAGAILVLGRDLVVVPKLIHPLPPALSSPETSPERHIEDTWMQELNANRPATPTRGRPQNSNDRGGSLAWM

[2] = molecular target: T2, BSL3-GFP (Arabidopsis thaliana) (UniProt Q9SHS7)
T2 sequence: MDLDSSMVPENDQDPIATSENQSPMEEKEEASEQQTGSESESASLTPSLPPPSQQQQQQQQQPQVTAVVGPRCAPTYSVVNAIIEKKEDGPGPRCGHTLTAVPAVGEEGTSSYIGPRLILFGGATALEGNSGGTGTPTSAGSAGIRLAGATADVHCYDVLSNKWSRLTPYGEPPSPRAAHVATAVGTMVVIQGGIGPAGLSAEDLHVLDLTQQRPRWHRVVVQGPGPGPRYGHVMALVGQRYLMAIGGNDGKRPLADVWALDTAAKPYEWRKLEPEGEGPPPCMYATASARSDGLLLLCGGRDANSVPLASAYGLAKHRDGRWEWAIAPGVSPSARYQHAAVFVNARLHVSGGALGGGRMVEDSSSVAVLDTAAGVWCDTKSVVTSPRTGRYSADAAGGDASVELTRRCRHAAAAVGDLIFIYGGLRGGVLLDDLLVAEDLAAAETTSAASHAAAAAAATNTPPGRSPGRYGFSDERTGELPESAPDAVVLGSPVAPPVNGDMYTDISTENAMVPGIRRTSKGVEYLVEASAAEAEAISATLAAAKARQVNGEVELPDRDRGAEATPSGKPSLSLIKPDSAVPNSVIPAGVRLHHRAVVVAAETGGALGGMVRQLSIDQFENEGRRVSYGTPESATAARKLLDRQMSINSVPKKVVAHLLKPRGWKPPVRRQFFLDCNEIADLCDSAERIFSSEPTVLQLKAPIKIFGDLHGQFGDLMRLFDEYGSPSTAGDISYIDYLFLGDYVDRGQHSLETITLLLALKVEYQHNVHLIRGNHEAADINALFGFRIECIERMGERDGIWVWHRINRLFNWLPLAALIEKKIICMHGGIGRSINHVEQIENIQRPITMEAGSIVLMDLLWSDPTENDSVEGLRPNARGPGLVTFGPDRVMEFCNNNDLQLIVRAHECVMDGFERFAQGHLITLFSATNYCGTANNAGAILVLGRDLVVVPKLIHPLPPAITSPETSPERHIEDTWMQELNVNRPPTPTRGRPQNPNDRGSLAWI

[3] = molecular target: T3, BSL1-GFP (Arabidopsis thaliana) (UniProt Q8L7U5)
T3 sequence: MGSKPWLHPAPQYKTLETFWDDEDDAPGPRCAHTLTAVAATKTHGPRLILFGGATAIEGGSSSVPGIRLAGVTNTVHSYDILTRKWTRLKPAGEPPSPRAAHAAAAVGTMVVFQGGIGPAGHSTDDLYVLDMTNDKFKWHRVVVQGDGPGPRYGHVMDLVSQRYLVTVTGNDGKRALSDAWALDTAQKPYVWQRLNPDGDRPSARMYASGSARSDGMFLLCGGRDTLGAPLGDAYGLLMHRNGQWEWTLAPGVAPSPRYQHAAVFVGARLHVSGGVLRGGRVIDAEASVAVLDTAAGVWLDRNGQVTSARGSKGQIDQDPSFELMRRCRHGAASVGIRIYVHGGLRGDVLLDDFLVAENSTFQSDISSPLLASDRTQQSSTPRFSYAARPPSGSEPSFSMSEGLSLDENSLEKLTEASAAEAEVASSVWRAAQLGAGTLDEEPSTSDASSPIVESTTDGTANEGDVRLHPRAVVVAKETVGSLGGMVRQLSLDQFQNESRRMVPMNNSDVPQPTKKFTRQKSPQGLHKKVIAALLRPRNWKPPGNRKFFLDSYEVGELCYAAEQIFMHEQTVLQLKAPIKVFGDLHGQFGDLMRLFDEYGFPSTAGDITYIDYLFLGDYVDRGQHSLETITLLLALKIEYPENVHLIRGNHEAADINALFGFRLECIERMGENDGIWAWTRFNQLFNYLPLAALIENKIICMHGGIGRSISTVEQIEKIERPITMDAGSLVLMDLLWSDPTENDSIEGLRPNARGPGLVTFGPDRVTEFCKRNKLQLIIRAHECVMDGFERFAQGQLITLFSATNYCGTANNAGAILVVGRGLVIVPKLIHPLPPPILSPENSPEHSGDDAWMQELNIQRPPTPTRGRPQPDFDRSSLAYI

binding [1]: binds
binding [2]: binds
binding [3]: binds
B1: PXL1-FLAG expressed in Nicotiana benthamiana (receptor, UniProt Q9FRS6 24-1029)
chain: ETFQNSEQEILLAFKSDLFDPSNNLQDWKRPENATTFSELVHCHWTGVHCDANGYVAKLLLSNMNLSGNVSDQIQSFPSLQALDLSNNAFESSLPKSLSNLTSLKVIDVSVNSFFGTFPYGLGMATGLTHVNASSNNFSGFLPEDLGNATTLEVLDFRGGYFEGSVPSSFKNLKNLKFLGLSGNNFGGKVPKVIGELSSLETIILGYNGFMGEIPEEFGKLTRLQYLDLAVGNLTGQIPSSLGQLKQLTTVYLYQNRLTGKLPRELGGMTSLVFLDLSDNQITGEIPMEVGELKNLQLLNLMRNQLTGIIPSKIAELPNLEVLELWQNSLMGSLPVHLGKNSPLKWLDVSSNKLSGDIPSGLCYSRNLTKLILFNNSFSGQIPEEIFSCPTLVRVRIQKNHISGSIPAGSGDLPMLQHLELAKNNLTGKIPDDIALSTSLSFIDISFNHLSSLSSSIFSSPNLQTFIASHNNFAGKIPNQIQDRPSLSVLDLSFNHFSGGIPERIASFEKLVSLNLKSNQLVGEIPKALAGMHMLAVLDLSNNSLTGNIPADLGASPTLEMLNVSFNKLDGPIPSNMLFAAIDPKDLVGNNGLCGGVLPPCSKSLALSAKGRNPGRIHVNHAVFGFIVGTSVIVAMGMMFLAGRWIYTRWDLYSNFAREYIFCKKPREEWPWRLVAFQRLCFTAGDILSHIKESNIIGMGAIGIVYKAEVMRRPLLTVAVKKLWRSPSPQNDIEDHHQEEDEEDDILREVNLLGGLRHRNIVKILGYVHNEREVMMVYEYMPNGNLGTALHSKDEKFLLRDWLSRYNVAVGVVQGLNYLHNDCYPPIIHRDIKSNNILLDSNLEARIADFGLAKMMLHKNETVSMVAGSYGYIAPEYGYTLKIDEKSDIYSLGVVLLELVTGKMPIDPSFEDSIDVVEWIRRKVKKNESLEEVIDASIAGDCKHVIEEMLLALRIALLCTAKLPKDRPSIRDVITMLAEAKPRRKSVCQVAGDLPIFRNSPVVGLI
